# About 14,000 (4.5%) of roughly 310,000 compounds showed an effect of 50% or more. Effects have a minus sign here. The list shows a part of the results.
# Biological target: human ether-à-go-go-related gene (hERG) potassium channel (human, UniProt Q12809)
# Test: primary screen, population patch clamp on CHO cells stably expressing hERG
# 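Further: peak tail current of the secondary pulse compared with the same well before compound.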
# human ether-à-go-go-related gene (hERG) potassium channel, sequence (Q12809 whole entry, looked up): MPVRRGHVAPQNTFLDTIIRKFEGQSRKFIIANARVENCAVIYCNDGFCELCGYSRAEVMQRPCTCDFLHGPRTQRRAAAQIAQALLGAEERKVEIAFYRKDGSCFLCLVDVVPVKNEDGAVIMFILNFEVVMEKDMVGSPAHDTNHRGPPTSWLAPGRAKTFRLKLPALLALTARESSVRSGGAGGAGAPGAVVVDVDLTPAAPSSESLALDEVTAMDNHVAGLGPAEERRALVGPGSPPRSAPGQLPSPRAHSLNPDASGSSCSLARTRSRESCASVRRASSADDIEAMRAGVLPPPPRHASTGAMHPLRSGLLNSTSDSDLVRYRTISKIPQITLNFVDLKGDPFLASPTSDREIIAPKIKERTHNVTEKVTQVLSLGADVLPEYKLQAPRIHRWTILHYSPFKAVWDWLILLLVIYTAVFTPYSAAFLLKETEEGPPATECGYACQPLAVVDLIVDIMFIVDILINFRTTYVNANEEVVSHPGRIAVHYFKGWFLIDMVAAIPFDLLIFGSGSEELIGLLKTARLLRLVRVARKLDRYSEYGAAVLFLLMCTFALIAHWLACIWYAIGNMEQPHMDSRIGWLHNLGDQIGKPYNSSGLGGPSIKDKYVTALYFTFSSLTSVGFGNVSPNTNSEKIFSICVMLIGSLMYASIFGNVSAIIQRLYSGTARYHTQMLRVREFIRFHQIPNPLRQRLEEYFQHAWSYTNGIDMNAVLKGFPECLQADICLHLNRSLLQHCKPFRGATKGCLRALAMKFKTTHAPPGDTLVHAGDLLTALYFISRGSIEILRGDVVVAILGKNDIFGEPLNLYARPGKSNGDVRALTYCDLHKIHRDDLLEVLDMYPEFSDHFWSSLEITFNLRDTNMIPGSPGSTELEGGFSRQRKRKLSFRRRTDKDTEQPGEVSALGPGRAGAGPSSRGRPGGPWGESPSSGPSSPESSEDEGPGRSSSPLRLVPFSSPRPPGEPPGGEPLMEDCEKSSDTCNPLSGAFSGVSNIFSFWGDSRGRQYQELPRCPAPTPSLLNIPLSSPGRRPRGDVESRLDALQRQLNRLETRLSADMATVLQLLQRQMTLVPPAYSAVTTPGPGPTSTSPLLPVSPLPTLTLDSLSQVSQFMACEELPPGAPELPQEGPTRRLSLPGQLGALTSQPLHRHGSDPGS
row,Structure (SMILES),"hERG current change (%, negative = inhibition) at 10uM [%]"
1,CCOC(=O)/C=C/CN(C(=O)OC(C)(C)C)S(=O)(=O)N1CC=CC1,10.9
2,O=C(Nc1ccc(Cl)cc1)c1cncs1,3.5
3,CC1=CC(=O)C=C/C1=C(/c1ccc(O)cc1C)c1ccccc1S(=O)(=O)[O-].[Na+],17
4,Cn1c(NC(=O)c2ccco2)cc(=O)n(C)c1=O,1.39
5,CCC1CCCCN1CCCNC(=O)Cn1cc2c(n1)-c1c(oc(C(=O)N3CCCC3)c1C)CC2 (stereo not drawn),9.32
6,CCCC[C@@H]1CNC(=S)N1CCCC,11
7,CCCOC(=O)NC(CC)COC(=O)Nc1cc(C)ccc1C (stereo not drawn),-2.64
8,COc1ccc(-n2c(C)cc(/C=C/c3nc(O)c([N+](=O)[O-])c(=O)[nH]3)c2C)cc1,3.06
9,CCOc1ccc(NC(=O)CSc2nc3[nH]ncc3c(=O)[nH]2)cc1,10.3
10,Cc1cccnc1CCNC(=O)C1CCC(=O)N(Cc2cccc(F)c2)C1 (stereo not drawn),17.3
11,CCc1ccc(S(=O)(=O)Nc2cc3c(cc2C)n(C)c(=O)n3C)cc1,-28.8
12,CC(CNC(=O)c1cc(Cl)ccc1[N+](=O)[O-])NC(=O)c1cc(Cl)ccc1[N+](=O)[O-] (stereo not drawn),-1.58
13,CCCn1c(N)c(C(=O)CSc2nnc(Cc3ccccc3)o2)c(=O)n(C)c1=O,-0.939
14,Cc1ccc(-c2[nH]c3ccccc3c2SCCNC(=O)c2cc3ccccc3oc2=O)cc1,17.4
15,CCCC(=O)N(c1ccc2oc(=O)sc2c1)S(=O)(=O)c1cccs1,6.31
16,Cc1cc(C)c(S(=O)(=O)c2ccccc2Cl)c(=O)[nH]1,10.7
17,COc1ccc2[nH]c3c(=O)n(CCCCCC(=O)NCCC(C)C)c(=S)[nH]c3c2c1,23.5
18,Cc1ccc(C)c2[nH]c(=O)c(CCNC(=O)CC(C)C)cc12,0.124
19,Cc1ccc(C)c2[nH]c(=O)c(C(c3nnnn3CCc3ccccc3)N3CCOCC3)cc12 (stereo not drawn),-59.4

row,Structure (SMILES),"hERG current change (%, negative = inhibition) at 10uM [%]"
1,CCCCCn1c2nc3ccccc3nc2c2c(=O)n(CC(C)C)cnc21,1.58
2,Cl.O.O=C(c1ccc(F)cc1)C1CCN(CCn2c(=S)[nH]c3ccccc3c2=O)CC1,-68.9
3,Cc1ccc(C(=O)N2CCCCC2C(=O)O)o1 (stereo not drawn),2.84
4,CCCOc1ccc(C(=O)NNC(=S)NC(=O)c2ccccc2)cc1,23.4
5,COc1c(C)cc(S(=O)(=O)N2CCOCC2)c(C)c1C,21.9
6,N#Cc1cccc(NS(=O)(=O)c2ccccc2Cl)c1,2.57
7,CCCCOc1ccc(C(=O)Oc2ccc(C)nc2)cc1,13.4
8,CCCCn1c(O)c(C(CC)=Nc2cccc(C(=O)O)c2)c(=O)[nH]c1=O,11.5
9,CCCCCCCC(=O)OCC(COC(=O)CCCCCCC)OC(=O)CCCCCCC,11.7
10,O=C(Cc1cccs1)N1CCN(S(=O)(=O)c2cccc([N+](=O)[O-])c2)CC1,-2.15
11,CC1CCN(C(=O)CN(C2CCCCC2)S(C)(=O)=O)CC1,1.15
12,N#Cc1nc(-c2ccc(OCc3ccccc3)cc2)oc1NCCCn1ccnc1,-1.96
13,CCOC(=O)C1CCN(C(=O)COc2cc(C)c(Br)cc2C)CC1,-54.7
14,COc1ccc(OC)c(NC(=O)C2C3CCC(O3)C2C(=O)O)c1 (stereo not drawn),4.75
15,CC(=O)c1cccc(NC(=O)CSc2ccc(-c3sc(C)nc3C)nn2)c1,7.68
16,CCC1=NN(C(=O)Cc2ccc(OC)c(OC)c2)C(O)(C(F)(F)F)C1 (stereo not drawn),12.5
17,O=C(CCN1C(=O)C2C3C=CC(C3)C2C1=O)N1CCN(c2ccccn2)CC1 (stereo not drawn),-5.28
18,O=C(N/N=C/c1cccnc1)c1cccc(Br)c1,10.4
19,CCOC(=O)COn1c2c(c3c4no[n+]([O-])c4ccc31)CCCC2,3.89

row,Structure (SMILES),"hERG current change (%, negative = inhibition) at 10uM [%]"
1,CCOc1cccc(C(=O)Nc2ccc(N(CC)CC)cc2)c1,-11.7
2,CCS(=O)(=O)Nc1ccc(C2=NN(C(C)=O)C(c3cccs3)C2)cc1 (stereo not drawn),-3.58
3,Cc1nnc(N/N=C/c2ccc(-c3ccc(Br)cc3)o2)n1N.Cl,-17.6
4,COc1ccccc1OCCn1nnc2ccccc21,2.87
5,CCN(C(=O)COC(=O)c1ccc(C)c(S(=O)(=O)N2CCOCC2)c1)C1CCS(=O)(=O)C1 (stereo not drawn),1.32
6,CCOc1cc(N2CCOCC2)c(OCC)cc1NC(=O)CN1CCCC1,6.63
7,CCCc1nnc(NC(=O)Cn2cnc3ccccc3c2=O)s1,12
8,N#CC(C#N)=Cc1ccc(N2CCOCC2)cc1,-10.7
9,N#Cc1cc2c(nc1SCc1nc3ccccc3[nH]1)CCC2,1.99
10,CN(C)c1ccc(/C=C/C(=O)c2ccc3c(c2)OCO3)cc1,14.4
11,COc1ccc(C2(C)NC(=O)N(CC(=O)NCc3ccccc3F)C2=O)cc1 (stereo not drawn),23.7
12,CCCCn1c(N)c(N(CC(C)C)C(=O)Cn2c(=O)oc3ccccc32)c(=O)[nH]c1=O,20
13,Cc1cc(C)c2nc(N)sc2c1,7.03
14,O=C(Cc1ccccc1)NNC(=O)C1CCCC1,2.14
15,COc1ccc(S(=O)(=O)N2CCC(C(=O)N3CCN(C)CC3)CC2)cc1OC,17.3
16,Cc1cc(C)c(NC(=O)c2cc(C(=O)O)ccc2C(=O)O)c([N+](=O)[O-])c1,14.1
17,COCCOCC(=O)Nc1ccc(S(=O)(=O)Nc2cc(C)nc(C)n2)cc1,21.3
18,Cc1ccc(C(=O)N/N=c2\oc3ccccc3cc2C(N)=O)cc1,-17.7
19,O=C(/C=C/c1ccccc1Cl)Nc1ccc(S(=O)(=O)Nc2ncccn2)cc1,30.3

# Source: publication PMC4336329 (PLoS ONE, 2015)
